Reference: patent publication US11987637B1, “Prevention of disulfide bond reduction during recombinant production of polypeptides” (Genentech, Inc., priority 2007, dated 2024)

What was measured:
[1] = test system: ocrelizumab disulfide bond reduction in HCCF; experiment: Air sparging of HCCF: percentage of intact antibody in protein A elution pools; details: sparged with air, from two hours for the remainder of the 36 hr study
[2] = test system: hexokinase, glucose-6-phosphate dehydrogenase, thioredoxin, thioredoxin reductase; experiment: Reconstructed enzymatic reduction system, Bioanalyzer assay

## ocrelizumab: humanized anti-CD20 antibody 2H7 Variant A: VL SEQ ID NO:1, VH SEQ ID NO:2, L chain SEQ ID NO:6, H chain SEQ ID NO:7
[1]
  percentage of intact antibody at 150 kDa: greater than 90%
[2]; 5 μM thioredoxin, 0.1 μM thioredoxin reductase, 2 mM NADP only, without hexokinase and G6PD (FIG. 41)
  reduction of ocrelizumab: does not result in the reduction
[2]; 1 mg/mL ocrelizumab, hexokinase, G6PD, Trx, TrxR, glucose, ATP, Mg2+, NADP, 50 mM histidine sulfate pH 7.38 (FIG. 40)
  time to reduction of ocrelizumab: about one hour
